{"source": "PubChem BioAssay AID463173", "about": "(ICCB-Longwood Screening Facility, Harvard Medical School, 2010)", "note": "Out of some 52,000 compounds screened, about 1,700 (3.3%) were called active. No stated cut-off is given here; in the data, active means survival mostly below about 52% (no sharp cut-off); inactive means mostly above about 56%. The list shows a part of the results.", "data": [{"test_system": "Wild type", "assay": "growth inhibition of S. aureus wild type versus tarO mutant, primary screen, teichoic acid synthesis inhibitors, RN4220, OD600 (AID 463173)", "conditions": "S. aureus RN4220 wild type/DeltatarO growth, OD600, 18 h, active compounds read low, screened at 18.75 µg/mL (by protocol)", "values": [{"smiles": "COc1cc(CNCCSc2nnnn2C)ccc1OCc1ccc(F)cc1", "survival": "inactive: 105%"}, {"smiles": "CC(CNC(=O)c1nnc(Cc2cccc(F)c2)o1)c1ccccc1", "note": "(stereo not given)", "survival": "inactive: 89%"}, {"smiles": "CC1=CC(C)C(/C=N/O)C(C)C1", "note": "(stereo not given)", "survival": "inactive: 104%"}, {"smiles": "O=c1[nH]c(=O)n(-c2ccc(Cl)cc2)c(O)c1/C=N/n1cnnc1", "survival": "inactive: 108%"}, {"smiles": "CC(=O)N(CN1C(=O)c2ccccc2C1=O)c1ccccc1", "survival": "inactive: 107%"}, {"smiles": "c1ccc2c(c1)COC1(CCCCC1)N2", "survival": "inactive: 101%"}, {"smiles": "COc1ccccc1C(=O)NCCSc1c(C)[nH]c2ccccc12", "survival": "inactive: 52%"}, {"smiles": "COc1ccc(N2CC(NC(=O)C3CC3)CC2=O)cc1", "note": "(stereo not given)", "survival": "inactive: 73%"}, {"smiles": "CCC(NC(=O)Nc1ccc(OC)c(OC)c1)c1c(-n2cccc2)sc2c1CCN(C)C2", "note": "(stereo not given)", "survival": "inactive: 65%"}, {"smiles": "CC(=O)c1cccc(NC(=O)[C@H](Cc2ccccc2)N2Cc3ccccc3C2=O)c1", "survival": "inactive: 81%"}, {"smiles": "COc1ccc(CCNC(=O)c2ccc3c(c2)N=C(C)c2cc(C)ccc2S3)cc1OC", "survival": "inactive: 77%"}, {"smiles": "CCc1ccc(NC(=O)Cn2c(=O)c(CNc3ccccc3)cc3cc(OC)c(OC)cc32)cc1", "survival": "inactive: 80%"}, {"smiles": "COc1cccc(NC(=O)CSc2nc(=O)n(Cc3ccccn3)c3c2CCC3)c1", "survival": "inactive: 68%"}, {"smiles": "O=c1oc2ccc3ccccc3c2cc1-c1nnc(Nc2ccc(Cl)cc2Cl)s1", "survival": "inactive: 72%"}, {"smiles": "COc1ccc(-c2nc3ccccc3o2)cc1NC(=O)C(C)(C)Oc1ccc(Br)cc1", "survival": "active: 0%"}, {"smiles": "Cc1ccc(Cn2nnc3c(=O)[nH]c(C4CCCN(C(=O)c5ccco5)C4)nc32)cc1", "note": "(stereo not given)", "survival": "inactive: 81%"}, {"smiles": "Cc1cccc(NC(=O)C2CCCN(S(=O)(=O)c3c(C)[nH]c(=O)[nH]c3=O)C2)c1C", "note": "(stereo not given)", "survival": "inactive: 129%"}, {"smiles": "COc1cccc(N2CCN(C(=O)CCS(=O)(=O)c3ccc4c(c3)CC(=O)N4C)CC2)c1", "survival": "inactive: 89%"}, {"smiles": "O=c1oc2ccccc2n1CCCOc1ccccc1Cl", "survival": "active: 0%"}, {"smiles": "O=C(Cn1c(=O)oc2cc(S(=O)(=O)N3CCCC3)ccc21)NCc1ccc(Cl)cc1", "survival": "inactive: 138%"}, {"smiles": "CS(=O)(=O)N1CCc2cc(C(=O)Nc3ccc(Cl)c(C(F)(F)F)c3)ccc21", "survival": "inactive: 37%"}, {"smiles": "Cc1ncc(CO)c2c1Oc1nc(-c3ccccc3)nc(SCC(=O)N3CCCCC3)c1C2", "survival": "inactive: 97%"}, {"smiles": "CCN(CC)C(=O)Cn1c(=O)n(Cc2ccc(C(=O)NCc3ccc(C)cc3)cc2)c(=O)c2ccccc21", "survival": "inactive: 68%"}, {"smiles": "O=C1OC(c2ccccc2)=N/C1=C1\\OC(=O)c2ccccc21", "survival": "inactive: 104%"}, {"smiles": "Cc1ccc(NC(=O)c2cn3c4c(ccc(Cl)c4c2=O)OC(C)C3)cc1C", "note": "(stereo not given)", "survival": "inactive: 73%"}]}]}
